# Measured values reported in PubChem BioAssay AID662 (National Center for Advancing Translational Sciences (NCATS), 2007).
# Several values for one entry are separate records, joined by “and”; a condition that tells them apart may be missing. Equal values may be shown once. In all, about 71,000 compounds went through this assay and about 1,800 (2.5%) were called active. This list was built around the results that the source calls inconclusive (neither active nor inactive); the mix of calls is not that of the screen. The call rests on the fitted dose curve; in most records, active means well fitted activation curve with a large enough effect in the signal ratio, with a control signal flat (not every such curve was filed as active); inconclusive means small, poorly fitted or top-dose-only effect, or effect the other way, or a change in a side signal; inactive means flat fitted curve, though single readings scatter; the % refers to the signal ratio. Where the call is inconclusive, the potency comes from a doubtful curve fit.
# Assay: Cell signaling CRE-BLA (Fsk stim); on activity change, negative = inhibition: % of control where 0% means no effect
# Conditions: CHO CRE-bla reporter (cAMP response element driving beta-lactamase), forskolin EC10, beta-lactamase ratio
# In short: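 CRE-bla CHO reporter cells treated with compound titration plus EC10 NKH 477 (water-soluble forskolin), incubated 3 h at 37 °C; CCF4 loading 2 h at room temperature, 460/530 nm emission ratio read, AC50 values derived for positive or negative modulators.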
# [1] = activity change, negative = inhibition: at 38.2 µM (top of the series) unless noted
# Potency means the concentration at half of the fitted maximal effect; tags describe the fitted curve by direction and shape.
compound,measurement,setting,value
CCC(=O)Nc1ccc(NC(=O)c2c(C)nc3ccccn23)cc1,Potency,[1],"inconclusive: 10 µM [rising, single point]"
COC(=O)N1CCC2(CC1)CCN(c1ccncc1)CC2,Potency,[1],inactive
Cc1cc(Cc2cc(C)c(N)cc2N)c(N)cc1N,"activity change, negative = inhibition",[1],inactive: -3.93% [at 7.6 µM]
CN(C)C(=O)c1ccc(-c2ccc3ncnc(NCCN4CCOCC4)c3c2)cc1,Potency,[1],inactive
CCN(CC)S(=O)(=O)c1ccc(OCC(=O)NCc2ccccc2)cc1,Potency,[1],"inconclusive: 5.01 µM [falling, single point]"
COc1cccc2cc(NC(=O)C3CCCCC3)c(=O)oc12,"activity change, negative = inhibition",[1],inconclusive: -0.335%
CCCCOc1nc2ccccc2nc1C(C#N)S(=O)(=O)c1ccccc1 (configuration not stated),Potency,[1],"inconclusive: 6.31 µM [rising, single point]"
Cc1ccc(-n2cnc3c(sc4nccc(N(C)C)c43)c2=O)cc1,Potency,[1],inactive
Cc1ccc(CCN2CC(C(=O)NCCN3CCOCC3)CC2=O)cc1 (configuration not stated),"activity change, negative = inhibition",[1],inconclusive: 15.3%
O=S(=O)(c1ccccc1)N1CCC2(CC1)CN(c1ccccn1)C2,Potency,[1],inactive
C=CCn1c(SC2CCOC2=O)nc2scc(C3CC3)c2c1=O (configuration not stated),Potency,[1],"inconclusive: 10 µM [rising, partial curve]"
C=Cn1nc(C)c2ccccc2c1=O,Potency,[1],"inconclusive: 12.6 µM [rising, single point]"
CC(C)=C[C@H]1[C@@H](C(=O)Oc2ccccc2C(C)C)C1(C)C,Potency,[1],"inconclusive: 5.01 µM [rising, single point]"
C=CCSc1nc(N)c(C#N)c(-c2ccc(C)cc2)c1C#N,Potency,[1],"inconclusive: 3.98 µM [rising, partial curve]"
CN1C(=O)CSc2ccc(NC(=O)N3CCc4ccccc43)cc21,Potency,[1],inactive
O=c1c(-c2ccc3c(c2)OCCO3)coc2cc(O)cc(O)c12,Potency,[1],inactive
CC(C)COC(=O)c1cc(=O)[nH]c2ccccc12,Potency,[1],"inconclusive: 12.6 µM [rising, single point]"
COc1ccc(S(=O)(=O)NC(CC(=O)NCC2CCCO2)c2ccco2)cc1 (configuration not stated),"activity change, negative = inhibition",[1],inconclusive: -2.96%
COc1cc(C2NC(C(=O)O)CS2)ccc1OCc1ccccc1C#N (configuration not stated),Potency,[1],inactive
COc1ccc(NC(=O)Cn2nc3n(c2=S)CCC3)cc1,Potency,[1],"inconclusive: 0.0794 µM [rising, full curve, poor fit]"
CC(C)Sc1nc2c(cnn2-c2ccc(F)cc2)c(=O)[nH]1,Potency,[1],active: 3.16 µM
Cc1noc(NS(=O)(=O)c2ccc(NC(=O)COc3ccc(Cl)cc3Cl)cc2)c1C,Potency,[1],"inconclusive: 1.58 µM [rising, partial curve]"
Cn1c(-c2cccc(Br)c2)cnc1NCc1cccnc1,Potency,[1],"inconclusive: 5.01 µM [rising, single point]"
COC(=O)Cc1[nH]nc2c1C(C1C=CCCC1)C(C#N)=C(N)O2 (configuration not stated),"activity change, negative = inhibition",[1],inconclusive: -21.6%
CCOC(=O)c1ccc(Nc2ncnc3c2cnn3C)cc1,Potency,[1],"inconclusive: 7.94 µM [rising, partial curve]"
O=C(Nc1cccc(F)c1)N1CCCC2(CCN(C(=O)c3csnn3)CC2)C1,Potency,[1],inactive
N[C@H](C(=O)O)c1nn[nH]n1,"activity change, negative = inhibition",[1],inconclusive: -6.67%
COc1ccc2cc3cc(C(=O)Nc4ccccc4N4CCN(C)CC4)oc3nc2c1,Potency,[1],"inconclusive: 25.1 µM [rising, single point]"
CC(=O)c1ccccc1Oc1nc(CN2CCOCC2)nc2scc(-c3cccs3)c12,"activity change, negative = inhibition",[1],inconclusive: -5.71%
COCCCn1cnc2c(c1=O)c1nc3ccccc3nc1n2-c1ccccc1,Potency,[1],"inconclusive: 15.8 µM [rising, partial curve]"
Cc1cc2oc(=O)cc(Cn3ccnc3)c2cc1C,Potency,[1],"inconclusive: 12.6 µM [rising, partial curve]"
c1coc(CNc2c3c(nc4ncnn24)CCC3)c1,"activity change, negative = inhibition",[1],inconclusive: 14.4%
COc1cccc(-c2cc(C(=O)Nc3ccccc3SC)no2)c1,"activity change, negative = inhibition",[1],inconclusive: -0.48%
CC(=O)N1[C@H](C)C=C[C@]1(Cc1ccccc1)C(=O)NCc1cc(F)cc(C(F)(F)F)c1,Potency,[1],inactive
CN(C)Cc1ccccc1-c1cncnc1Nc1ccncc1,Potency,[1],inactive
CC(OC(=O)CNC(=O)C12CC3CC(CC(C3)C1)C2)C(=O)Nc1ccc(N2CCOCC2)cc1 (configuration not stated),Potency,[1],"inconclusive: 0.126 µM [falling, single point]"
CCCCn1c(CNC(=O)c2cccs2)nc2ccccc21,Potency,[1],inactive
O=C(Nc1ccccc1)C1=C(O)CC(c2ccoc2)CC1=Nc1ccccc1 (configuration not stated),Potency,[1],"inconclusive: 0.0631 µM [rising, partial curve, poor fit]"
CC(C)Oc1ccccc1-c1nc(SCC(=O)O)n[nH]1,"activity change, negative = inhibition",[1],inconclusive: 3.12%
CCn1c2ccccc2c2nnc(SCC(=O)NCc3cccs3)nc21,Potency,[1],active: 10 µM
CCOc1ccc(NC(=O)c2nnn(CC(=O)Nc3ccccc3OCC)c2N)cc1,"activity change, negative = inhibition",[1],inconclusive: 18.1%
CS/C(=N\S(=O)(=O)c1cccs1)NC(=O)CSc1nc2ccccc2s1,Potency,[1],inactive
Cc1cc(=O)[nH]c(SCc2nc3ccccc3n2Cc2ccccc2)n1,Potency,[1],"inconclusive: 20 µM [rising, single point]"
COc1ccc(C(=O)N2CCCC(c3nc(-c4cccs4)no3)C2)cc1OC (configuration not stated),Potency,[1],"inconclusive: 10 µM [rising, single point]"
Clc1ccc2c(c1)c1ccccc1n2CN1CCOCC1,"activity change, negative = inhibition",[1],inconclusive: 22.8%
Cc1nc(SCC(=O)N2CCOCC2)c2ccsc2n1,Potency,[1],"inconclusive: 5.01 µM [falling, single point]"
O=C(CSc1nnc(-c2cccnc2)n1Cc1ccco1)c1ccc(Cl)c(Cl)c1,Potency,[1],"inconclusive: 12.6 µM [rising, single point]"
C/C(N)=C(/C#N)C(=O)CSc1nc(C2CCCCC2)n(-c2ccccc2)n1,Potency,[1],inactive
CCSc1sccc1C1C(C#N)=C(N)N(c2cccnc2)C2=C1C(=O)CCC2 (configuration not stated),Potency,[1],inactive
CC(C)C[C@@H](CC(=O)N[C@@H](CCC(=O)O)CC(=O)O)NC(=O)[C@@H]1CNCC[C@H]1NC(=O)C[C@@H](NC(=O)C[C@H](CO)NC(=O)[C@@H]1CNCC[C@H]1N)C(C)C,"activity change, negative = inhibition",[1],inconclusive: -16.6%
O=C(Cn1cnc2ccccc2c1=O)NCC(=O)N1CCN(Cc2ccc3c(c2)OCO3)CC1,"activity change, negative = inhibition",[1],inconclusive: -11.8%
Cc1cccc(N2CCN(S(=O)(=O)c3ccc4c(c3)CCN4C(=O)CCC(=O)O)CC2)c1C,"activity change, negative = inhibition",[1],inconclusive: -8.89%
N[C@@H](CO)C(=O)O,"activity change, negative = inhibition",[1],inconclusive: -4.98%
O=C(Oc1ccc2ccc(=O)oc2c1)N1CCOCC1,Potency,[1],inactive
O=C(NC1CC1)c1ccc2c(c1)ncn2C1CCCC1,"activity change, negative = inhibition",[1],inconclusive: 15.2%
CCC(C)c1ccc2oc(-c3ccc(NC(=O)Cn4cnc5c(=O)n(C)c(=O)n(C)c54)cc3)nc2c1 (configuration not stated),Potency,[1],inactive
O=C(Nc1ccccc1C(=O)OCn1nnc2ccccc2c1=O)c1ccco1,"activity change, negative = inhibition",[1],inconclusive: 21%
Cc1ccccc1NS(=O)(=O)c1cccc(-c2nnc(-c3ccccc3)o2)c1,Potency,[1],inactive
O=C(c1cccc(F)c1)N1C2C=CC(C2)C1(C(F)(F)F)C(F)(F)F (configuration not stated),"activity change, negative = inhibition",[1],inconclusive: 45%
Cc1ccc(S(=O)(=O)n2nc(-c3ccco3)nc2SCc2ccccc2)cc1,"activity change, negative = inhibition",[1],inconclusive: -10.4%
CC1CCN(S(=O)(=O)c2ccc3ncn(CC(=O)N(C)Cc4ccccc4)c(=O)c3c2)CC1,Potency,[1],inactive
COC(=O)c1nc2n(n1)C(c1cccc(Cl)c1)C1=C(CCCC1=O)N2 (configuration not stated),Potency,[1],inactive
N#CC1(O)CCCCC1,Potency,[1],inactive
CCOC(=O)Nc1ccc2c(c1)N(C(=O)OC)c1ccccc1CC2,"activity change, negative = inhibition",[1],inconclusive: 22.8%
Cc1nc(N)c(C#N)c(-c2ccccc2)c1C,Potency,[1],"inconclusive: 5.01 µM [rising, partial curve]"
CN1C(=O)CC[C@@H]1c1cccnc1,"activity change, negative = inhibition",[1],inconclusive: -1.22% [at 17.1 µM]
same,"activity change, negative = inhibition",at 38.2 µM (top of the series),inactive: 2.51% and inactive: -10.5%
Cc1ccc(-c2nnc(-c3ccc(Br)cc3)o2)o1,Potency,[1],inactive
CCOc1ccc(S(=O)(=O)N2CCN(C(=O)c3cccn3C)CC2)cc1,Potency,[1],"inconclusive: 3.98 µM [rising, full curve, poor fit]"
Cc1ccc(S(=O)(=O)N(C)Cc2ccc(-c3nnc4n3CCC4)cc2)cc1,Potency,[1],"inconclusive: 3.16 µM [falling, single point]"
COc1cc(C(O)P(=O)(OC2CCCCC2)c2ccc(N(C)C)cc2)cc(OC)c1OC (configuration not stated),"activity change, negative = inhibition",[1],inconclusive: -2.44%
Cc1cc(O)c(C(C)C)cc1N=Cc1ccccc1O,"activity change, negative = inhibition",[1],inactive: 1.82% [at 7.6 µM]
NNC(=O)CCc1ccc2ccc3ccccc3c2c1,"activity change, negative = inhibition",[1],inactive: -1.93% [at 7.6 µM]
CC(C)(C)NC(=O)Cn1nnc(-c2cccs2)n1,Potency,[1],"inconclusive: 7.94 µM [rising, partial curve]"
Cc1cc(Cl)ccc1OCCCC(=O)NC1CCN(C)CC1,Potency,[1],"inconclusive: 0.0251 µM [rising, full curve]"
C1COC(NC(C2CC2)C2CC2)=N1,"activity change, negative = inhibition",[1],inconclusive: -14.2%
O=c1c(-c2cc(F)cc(F)c2)nc2cnc(N3CCNCC3)nc2n1Cc1cccs1,Potency,[1],"inconclusive: 0.398 µM [rising, full curve]"
Cc1cc(C)n(-c2nc3c(c(=O)[nH]c(=O)n3C)n2CCc2ccccc2)n1,"activity change, negative = inhibition",[1],inconclusive: 24.7%
CCCC(=O)Nc1nn(C)c2nc3cc(C)ccc3cc12,"activity change, negative = inhibition",[1],inconclusive: 25.4%
CC1CCCCC1NC(=O)c1ccc(N2CCCC2=O)cc1 (configuration not stated),"activity change, negative = inhibition",[1],inconclusive: -17.5%
N#CC1=C(N)Oc2cc3c(cc2C1c1ccc(Cl)cc1)OCO3 (configuration not stated),"activity change, negative = inhibition",[1],inconclusive: 6.69%
CCn1nc(C)c(/C=C2\CCCC3=C2OC(N)=C(C#N)C3c2c(C)nn(CC)c2C)c1C (configuration not stated),Potency,[1],"inconclusive: 10 µM [rising, single point]"
